# Target: T1, Human IL7Ra-IL2Rγ-Fc heterodimer (human, biotin on the avi tag)
# T1 construct: Extracellular domains of IL-7Ralpha and IL-2Rgamma fused to Fc knob and Fc hole; also called hu IL7Ra-IL2Rγ-Fc avi biotin; human IL7Ra-IL2Rg-Fc biotin
# Experiment: SPR, captured from supernatant, 800 nM receptor-Fc single injection
# Method: Surface Plasmon Resonacne (SPR) experiments were performed on a Biacore T200 with HBS-EP+ as running buffer (0.01 M HEPES pH 7.4, 0.15 M NaCl, 0.005% Surfactant P20 (BR-1006-69, GE Healthcare)). Fc specific antibodies (Roche internal) were directly immobilized by amine coupling on a CM5 chip (GE Healthcare). The PDI-IL7 constructs were captured from supernatants for 120 s at 100 nM. […] Only the extracellular domains were fused to Fc domains, produced in HEK Expi Cells and purified by two-step column chromatography including affinity purification via Protein A followed by size-exclusion chromatography. A single injection of 800 nM hu IL 7Ra-IL2Rγ-Fc heterodimer was passed over the ligand at 30 µ1/min for 240 sec to record the association phase. The dissociation phase was monitored for 360 s and triggered by switching from the sample solution to HBS-EP+. The chip surface was regenerated after every cycle using one injection of 10 mM glycine pH 2 for 60 sec. Bulk refractive index differences were corrected for by subtracting the response obtained on the reference flow cell 1. The response units after the capture step and at the end of the association phase were recorded and a ratio of binding to capture was calculated. The single binding curves were fitted in the dissociation phase to obtain a koff for ease of comparison (Biacore Evaluation software, GE Healthcare).
# The ratio of binding to capture was calculated and the dissociation phase was fitted to a single curve to support the characterization of the off-rate.
row,Binder,koff [s⁻¹]
1,"PD1-IL7-VAR1 (E13A) (other, Format as m1) light: DIVMTQSPDSLAVSLGERATINCKASESVDTSDNSFIHWYQQKPGQSPKLLIYRSSTLESGVPDRFSGSGSGTDFTLTISSLQAEDVAVYYCQQNYDVPWTFGQGTKVEIKRTVAAPSVFIFPPSDEQLKSGTASVVCLLNNFYPREAKVQWKVDNALQSGNSQESVTEQDSKDSTYSLSSTLTLSKADYEKHKVYACEVTHQGLSSPVTKSFNRGEC heavy 1: EVQLLESGGGLVQPGGSLRLSCAASGFSFSSYTMSWVRQAPGKGLEWVATISGGGRDIYYPDSVKGRFTISRDNSKNTLYLQMNSLRAEDTAVYYCVLLTGRVYFALDSWGQGTLVTVSSASTKGPSVFPLAPSSKSTSGGTAALGCLVKDYFPEPVTVSWNSGALTSGVHTFPAVLQSSGLYSLSSVVTVPSSSLGTQTYICNVNHKPSNTKVDKKVEPKSCDKTHTCPPCPAPEAAGGPSVFLFPPKPKDTLMISRTPEVTCVVVDVSHEDPEVKFNWYVDGVEVHNAKTKPREEQYNSTYRVVSVLTVLHQDWLNGKEYKCKVSNKALGAPIEKTISKAKGQPREPQVCTLPPSRDELTKNQVSLSCAVKGFYPSDIAVEWESNGQPENNYKTTPPVLDSDGSFFLVSKLTVDKSRWQQGNVFSCSVMHEALHNHYTQKSLSLSPGK heavy 2: EVQLLESGGGLVQPGGSLRLSCAASGFSFSSYTMSWVRQAPGKGLEWVATISGGGRDIYYPDSVKGRFTISRDNSKNTLYLQMNSLRAEDTAVYYCVLLTGRVYFALDSWGQGTLVTVSSASTKGPSVFPLAPSSKSTSGGTAALGCLVKDYFPEPVTVSWNSGALTSGVHTFPAVLQSSGLYSLSSVVTVPSSSLGTQTYICNVNHKPSNTKVDKKV[human IgG1 Fc with changes left out]GGGGSGGGGSGGGGSDCDIEGKDGKQYASVLMVSIDQLLDSMKEIGSNCLNNEFNFFKRHICDANKEGMFLFRAARKLRQFLKMNSTGDFDLHLLKVSEGTTILLNCTGQVKGRKPAALGEAQPTKSLEENKSLKEQKKLNDLCFLKRLLQEIKTCWNKILMGTKEH",0.000555
2,"PD1-IL7-VAR2 (E13K) (other, Format as m1; IL-7 with E13K) light: DIVMTQSPDSLAVSLGERATINCKASESVDTSDNSFIHWYQQKPGQSPKLLIYRSSTLESGVPDRFSGSGSGTDFTLTISSLQAEDVAVYYCQQNYDVPWTFGQGTKVEIKRTVAAPSVFIFPPSDEQLKSGTASVVCLLNNFYPREAKVQWKVDNALQSGNSQESVTEQDSKDSTYSLSSTLTLSKADYEKHKVYACEVTHQGLSSPVTKSFNRGEC heavy 1: EVQLLESGGGLVQPGGSLRLSCAASGFSFSSYTMSWVRQAPGKGLEWVATISGGGRDIYYPDSVKGRFTISRDNSKNTLYLQMNSLRAEDTAVYYCVLLTGRVYFALDSWGQGTLVTVSSASTKGPSVFPLAPSSKSTSGGTAALGCLVKDYFPEPVTVSWNSGALTSGVHTFPAVLQSSGLYSLSSVVTVPSSSLGTQTYICNVNHKPSNTKVDKKVEPKSCDKTHTCPPCPAPEAAGGPSVFLFPPKPKDTLMISRTPEVTCVVVDVSHEDPEVKFNWYVDGVEVHNAKTKPREEQYNSTYRVVSVLTVLHQDWLNGKEYKCKVSNKALGAPIEKTISKAKGQPREPQVCTLPPSRDELTKNQVSLSCAVKGFYPSDIAVEWESNGQPENNYKTTPPVLDSDGSFFLVSKLTVDKSRWQQGNVFSCSVMHEALHNHYTQKSLSLSPGK heavy 2: EVQLLESGGGLVQPGGSLRLSCAASGFSFSSYTMSWVRQAPGKGLEWVATISGGGRDIYYPDSVKGRFTISRDNSKNTLYLQMNSLRAEDTAVYYCVLLTGRVYFALDSWGQGTLVTVSSASTKGPSVFPLAPSSKSTSGGTAALGCLVKDYFPEPVTVSWNSGALTSGVHTFPAVLQSSGLYSLSSVVTVPSSSLGTQTYICNVNHKPSNTKVDKKV[human IgG1 Fc with changes left out]GGGGSGGGGSGGGGSDCDIEGKDGKQYKSVLMVSIDQLLDSMKEIGSNCLNNEFNFFKRHICDANKEGMFLFRAARKLRQFLKMNSTGDFDLHLLKVSEGTTILLNCTGQVKGRKPAALGEAQPTKSLEENKSLKEQKKLNDLCFLKRLLQEIKTCWNKILMGTKEH",0.000864

# Results, then the binder that gave them:
row,koff [s⁻¹],Binder
1,0.000623,"PD1-IL7-VAR7 (D21A) (other, Format as m1; IL-7 with D21A) light: DIVMTQSPDSLAVSLGERATINCKASESVDTSDNSFIHWYQQKPGQSPKLLIYRSSTLESGVPDRFSGSGSGTDFTLTISSLQAEDVAVYYCQQNYDVPWTFGQGTKVEIKRTVAAPSVFIFPPSDEQLKSGTASVVCLLNNFYPREAKVQWKVDNALQSGNSQESVTEQDSKDSTYSLSSTLTLSKADYEKHKVYACEVTHQGLSSPVTKSFNRGEC heavy 1: EVQLLESGGGLVQPGGSLRLSCAASGFSFSSYTMSWVRQAPGKGLEWVATISGGGRDIYYPDSVKGRFTISRDNSKNTLYLQMNSLRAEDTAVYYCVLLTGRVYFALDSWGQGTLVTVSSASTKGPSVFPLAPSSKSTSGGTAALGCLVKDYFPEPVTVSWNSGALTSGVHTFPAVLQSSGLYSLSSVVTVPSSSLGTQTYICNVNHKPSNTKVDKKVEPKSCDKTHTCPPCPAPEAAGGPSVFLFPPKPKDTLMISRTPEVTCVVVDVSHEDPEVKFNWYVDGVEVHNAKTKPREEQYNSTYRVVSVLTVLHQDWLNGKEYKCKVSNKALGAPIEKTISKAKGQPREPQVCTLPPSRDELTKNQVSLSCAVKGFYPSDIAVEWESNGQPENNYKTTPPVLDSDGSFFLVSKLTVDKSRWQQGNVFSCSVMHEALHNHYTQKSLSLSPGK heavy 2: EVQLLESGGGLVQPGGSLRLSCAASGFSFSSYTMSWVRQAPGKGLEWVATISGGGRDIYYPDSVKGRFTISRDNSKNTLYLQMNSLRAEDTAVYYCVLLTGRVYFALDSWGQGTLVTVSSASTKGPSVFPLAPSSKSTSGGTAALGCLVKDYFPEPVTVSWNSGALTSGVHTFPAVLQSSGLYSLSSVVTVPSSSLGTQTYICNVNHKPSNTKVDKKV[human IgG1 Fc with changes left out]GGGGSGGGGSGGGGSDCDIEGKDGKQYESVLMVSIAQLLDSMKEIGSNCLNNEFNFFKRHICDANKEGMFLFRAARKLRQFLKMNSTGDFDLHLLKVSEGTTILLNCTGQVKGRKPAALGEAQPTKSLEENKSLKEQKKLNDLCFLKRLLQEIKTCWNKILMGTKEH"
2,0.000598,"PD1-IL7-VAR9 (Q22A) (other, Format as m1; IL-7 with Q22A) light: DIVMTQSPDSLAVSLGERATINCKASESVDTSDNSFIHWYQQKPGQSPKLLIYRSSTLESGVPDRFSGSGSGTDFTLTISSLQAEDVAVYYCQQNYDVPWTFGQGTKVEIKRTVAAPSVFIFPPSDEQLKSGTASVVCLLNNFYPREAKVQWKVDNALQSGNSQESVTEQDSKDSTYSLSSTLTLSKADYEKHKVYACEVTHQGLSSPVTKSFNRGEC heavy 1: EVQLLESGGGLVQPGGSLRLSCAASGFSFSSYTMSWVRQAPGKGLEWVATISGGGRDIYYPDSVKGRFTISRDNSKNTLYLQMNSLRAEDTAVYYCVLLTGRVYFALDSWGQGTLVTVSSASTKGPSVFPLAPSSKSTSGGTAALGCLVKDYFPEPVTVSWNSGALTSGVHTFPAVLQSSGLYSLSSVVTVPSSSLGTQTYICNVNHKPSNTKVDKKVEPKSCDKTHTCPPCPAPEAAGGPSVFLFPPKPKDTLMISRTPEVTCVVVDVSHEDPEVKFNWYVDGVEVHNAKTKPREEQYNSTYRVVSVLTVLHQDWLNGKEYKCKVSNKALGAPIEKTISKAKGQPREPQVCTLPPSRDELTKNQVSLSCAVKGFYPSDIAVEWESNGQPENNYKTTPPVLDSDGSFFLVSKLTVDKSRWQQGNVFSCSVMHEALHNHYTQKSLSLSPGK heavy 2: EVQLLESGGGLVQPGGSLRLSCAASGFSFSSYTMSWVRQAPGKGLEWVATISGGGRDIYYPDSVKGRFTISRDNSKNTLYLQMNSLRAEDTAVYYCVLLTGRVYFALDSWGQGTLVTVSSASTKGPSVFPLAPSSKSTSGGTAALGCLVKDYFPEPVTVSWNSGALTSGVHTFPAVLQSSGLYSLSSVVTVPSSSLGTQTYICNVNHKPSNTKVDKKV[human IgG1 Fc with changes left out]GGGGSGGGGSGGGGSDCDIEGKDGKQYESVLMVSIDALLDSMKEIGSNCLNNEFNFFKRHICDANKEGMFLFRAARKLRQFLKMNSTGDFDLHLLKVSEGTTILLNCTGQVKGRKPAALGEAQPTKSLEENKSLKEQKKLNDLCFLKRLLQEIKTCWNKILMGTKEH"
3,0.000634,"PD1-IL7-VAR8 (D21K) (other, Format as m1; IL-7 with D21K) light: DIVMTQSPDSLAVSLGERATINCKASESVDTSDNSFIHWYQQKPGQSPKLLIYRSSTLESGVPDRFSGSGSGTDFTLTISSLQAEDVAVYYCQQNYDVPWTFGQGTKVEIKRTVAAPSVFIFPPSDEQLKSGTASVVCLLNNFYPREAKVQWKVDNALQSGNSQESVTEQDSKDSTYSLSSTLTLSKADYEKHKVYACEVTHQGLSSPVTKSFNRGEC heavy 1: EVQLLESGGGLVQPGGSLRLSCAASGFSFSSYTMSWVRQAPGKGLEWVATISGGGRDIYYPDSVKGRFTISRDNSKNTLYLQMNSLRAEDTAVYYCVLLTGRVYFALDSWGQGTLVTVSSASTKGPSVFPLAPSSKSTSGGTAALGCLVKDYFPEPVTVSWNSGALTSGVHTFPAVLQSSGLYSLSSVVTVPSSSLGTQTYICNVNHKPSNTKVDKKVEPKSCDKTHTCPPCPAPEAAGGPSVFLFPPKPKDTLMISRTPEVTCVVVDVSHEDPEVKFNWYVDGVEVHNAKTKPREEQYNSTYRVVSVLTVLHQDWLNGKEYKCKVSNKALGAPIEKTISKAKGQPREPQVCTLPPSRDELTKNQVSLSCAVKGFYPSDIAVEWESNGQPENNYKTTPPVLDSDGSFFLVSKLTVDKSRWQQGNVFSCSVMHEALHNHYTQKSLSLSPGK heavy 2: EVQLLESGGGLVQPGGSLRLSCAASGFSFSSYTMSWVRQAPGKGLEWVATISGGGRDIYYPDSVKGRFTISRDNSKNTLYLQMNSLRAEDTAVYYCVLLTGRVYFALDSWGQGTLVTVSSASTKGPSVFPLAPSSKSTSGGTAALGCLVKDYFPEPVTVSWNSGALTSGVHTFPAVLQSSGLYSLSSVVTVPSSSLGTQTYICNVNHKPSNTKVDKKV[human IgG1 Fc with changes left out]GGGGSGGGGSGGGGSDCDIEGKDGKQYESVLMVSIKQLLDSMKEIGSNCLNNEFNFFKRHICDANKEGMFLFRAARKLRQFLKMNSTGDFDLHLLKVSEGTTILLNCTGQVKGRKPAALGEAQPTKSLEENKSLKEQKKLNDLCFLKRLLQEIKTCWNKILMGTKEH"

# Reference: patent US20230192795A1 (Hoffmann-La Roche, published 2023)
